System: HeLa cells transfected with mCherry-AP
Assay: BirA translocation assay (mCherry-AP biotinylation, western blot)
Assay type: cell-based
Conditions: 250 nM, 500 nM, and 1 μM

B1: +36 GFP-BirA: +36 GFP fused to evolved biotin ligase BirA, SEQ ID NO: 80 (protein)
chain: MGGGSGGSGGSGGSGGSGGSGGSGGSGGSSKGERLFRGKVPILVELKGDVNGHKFSVRGKGKGDATRGKLTLKFICTTGKLPVPWPTLVTTLTYGVQCFSRYPKHMKRHDFFKSAMPKGYVQERTISFKKDGKYKTRAEVKFEGRTLVNRIKLKGRDFKEKGNILGHKLRYNFNSHKVYITADKRKNGIKAKFKIRHNVKDGSVQLADHYQQNTPIGRGPVLLPRNHYLSTRSKLSKDPKEKRDHMVLLEFVTAAGIKHGRDERYKTGGSGGSGGSGGSGGSGGSGGSGGSGG[letters of about 300 residues not shown]GGSHHHHHH
- AP-biotinylation across treatment concentrations: dose-dependent increase

— patent US20180312542A1, “ENDOSOMAL ESCAPE PEPTIDES” (priority 2015, published 2018)
